Source: PubChem BioAssay AID602310 (National Center for Advancing Translational Sciences (NCATS), 2012)
About 310 (0.076%) of roughly 410,000 compounds were called active. This list was built around the results that the source calls inconclusive (neither active nor inactive); the mix of calls is not that of the screen. Calls follow the shape of the dose curve; as a rule, active = well fitted curve in the direction sought with a large enough effect; inconclusive = small, poorly fitted or top-dose-only effect; inactive = flat fitted curve, though single readings scatter. Potencies of inconclusive entries are doubtful fits and often do not repeat.

Target: DNA dC->dU-editing enzyme APOBEC-3G (Homo sapiens) (UniProt Q9HC16)
Chain of UniProt Q9HC16 (Q9HC16 whole entry, looked up): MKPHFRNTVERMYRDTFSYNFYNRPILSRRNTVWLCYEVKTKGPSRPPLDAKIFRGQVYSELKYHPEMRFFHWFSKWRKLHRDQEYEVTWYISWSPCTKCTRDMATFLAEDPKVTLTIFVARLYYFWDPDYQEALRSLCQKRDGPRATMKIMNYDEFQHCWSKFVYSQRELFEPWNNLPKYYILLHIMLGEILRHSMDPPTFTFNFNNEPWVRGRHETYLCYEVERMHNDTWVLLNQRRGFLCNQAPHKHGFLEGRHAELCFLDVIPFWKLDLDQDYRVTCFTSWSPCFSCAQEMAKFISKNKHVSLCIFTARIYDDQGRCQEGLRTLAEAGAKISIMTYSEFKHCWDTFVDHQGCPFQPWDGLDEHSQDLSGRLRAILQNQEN
Assay: qHTS for Inhibitors of Vif-A3G Interactions: qHTS; also: nearly all actives have a fitted effect of over 60% in size;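 as to activity, negative = active: hits raise eYFP signal because A3G escapes Vif-driven loss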
Conditions: HeLa A3G-eYFP + Vif (tagged APOBEC3G with the HIV-1 protein that degrades it), YFP fluorescence, overnight; series mostly up to 46.1 µM; activity, negative = active: at the top concentration
How it was run: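 Read-out is eYFP fluorescence (Ex 488/Em 500-530) from Vif-expressing HeLa A3G-eYFP cells; more signal means A3G escaped Vif-mediated degradation. Cells plated overnight, compound pinned in, incubated overnight at 37 deg C.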
% is scaled to controls: 0 for no effect and ±100 for the full control effect; potency is read from the fitted curve at half-maximal effect; tags tell the direction and shape of the fitted curve.

Compound | activity, negative = active | Potency
O=[N+]([O-])c1cc2no[n+]([O-])c2cc1N1CCCCC1 | inactive: -6.14% | –
COc1ccc(C=CC(=O)c2cc(O)ccc2O)cc1 | – | inconclusive: 22.4 µM [inhibitor, partial curve, poor fit]
COC(=O)c1ccc(COc2ccccc2/C=C(\C#N)C(=O)Nc2c(C)cccc2C)cc1 | – | inconclusive: 4.47 µM [inhibitor, single point]
CCOC(=O)N/N=C\c1ccccc1OC/C=C/c1ccccc1 | – | inconclusive: 20 µM [inhibitor, single point]
CN(Cc1ccccc1N1CCCC1)C(=O)c1cc2cc(Cl)ccc2o1 | inactive: 0.789% | –
C=C(C)C1CC=C(C)/C(=N\NC(=S)Nc2ccc(C)cc2)C1 (centres undefined) | – | inconclusive: 11.2 µM [inhibitor, partial curve]
COc1cc(OC)cc(C(=O)NCC(=O)N2CC=C(c3ccccc3)CC2)c1 | – | inconclusive: 2.24 µM [inhibitor, full curve, poor fit]
CCOc1ccccc1C(=O)Oc1c(S(=O)(=O)c2ccc(C)cc2)c(C)nn1-c1ccccc1 | – | inconclusive: 20 µM [inhibitor, partial curve, poor fit]
COc1ccc(/C=C2\COc3ccccc3C2=O)cc1OC | – | inconclusive: 35.5 µM [inhibitor, single point]
N#CSCC(=O)c1cccc2ccccc12 | – | inconclusive: 35.5 µM [inhibitor, single point]
Cc1cc(C)cc(-n2ccnc2SCC(=O)Nc2nnc(C)s2)c1 | – | inconclusive: 6.31 µM [inhibitor, full curve]
CCOC(=O)c1c(NC(=O)c2ccc(S(=O)(=O)N3CCC(C)CC3)cc2)sc2c1CCN(C)C2 | – | inconclusive: 35.5 µM [inhibitor, single point]
O=C(COc1ccc(Cl)cc1Cl)NCc1ccncc1 | inactive: -1.55% | –
O=C(Nc1cccc(-c2cnc3ccccc3n2)c1)c1cccc(NC(=O)c2ccco2)c1 | inactive: -20.4% | –
Cc1[nH]n(-c2ccccc2)c(=O)c1C(C[N+](=O)[O-])c1ccc(F)cc1 (centres undefined) | – | inconclusive: 25.1 µM [inhibitor, single point]
CCN(CC(=O)Nc1ccccc1OC)CC(=O)Nc1ccccc1-c1ccccc1 | – | inconclusive: 2.82 µM [inhibitor, full curve, poor fit]
CCOc1ccc(C(=O)COC(=O)Cc2n[nH]c(=O)c3ccccc23)cc1 | – | active: 8.91 µM
COc1ccc(N2CCN(S(=O)(=O)c3ccc4oc(=O)c5ncn(C)c5c4c3)CC2)cc1 | inactive: 1.86% | –
CCN(c1cccc(C)c1)S(=O)(=O)c1nnc(NC(=O)C2CCCCC2)s1 | inactive: 0.875% | –
N#C/C(=C/c1ccc(N2CCCCC2)o1)C(=O)NCCc1c[nH]c2ccccc12 | – | inconclusive: 3.16 µM [inhibitor, single point]
CCOc1cc(C2NN=C(c3ccc(C)cc3)S2)ccc1O (centres undefined) | inactive: -16.3% | –
Cc1nnc(-c2ccccc2)c(=O)n1/N=C/c1c(O)ccc2ccccc12 | – | inconclusive: 25.1 µM [inhibitor, single point]

Compound | activity, negative = active | Potency
C/C(=C1/SC(=S)N(CCC(=O)O)C1=O)c1ccc(O)cc1 | inactive: -4.72% | –
CCOCCC(=O)Nc1ccc2c(c1)c(=O)n(C)n2C/C=C/c1ccccc1 | – | inconclusive: 5.62 µM [inhibitor, full curve]
N#CCC(=O)N/N=C/c1ccc(Sc2nc3ccccc3s2)o1 | – | inconclusive: 35.5 µM [inhibitor, single point]
Cc1cc(C)nc(SCc2cc(=O)c(OC(=O)c3ccc(S(=O)(=O)N4CCCC4)cc3)co2)n1 | inactive: 3.46% | –
COc1ccc(N(S(=O)(=O)c2ccccc2)S(=O)(=O)c2ccccc2)c(N)c1 | – | inconclusive: 10 µM [inhibitor, partial curve, poor fit]
CCCNC(=S)Nc1ccc(Cl)cc1Cl | inactive: 1.67% | –
O=C(CCC1CCCN(C(=O)c2cncs2)C1)NCc1ccc(F)c(F)c1 (centres undefined) | inactive: 0.368% | –
CCN(CC)c1ccc2oc(=O)c(C)nc2c1 | – | inconclusive: 35.5 µM [inhibitor, single point]
Cc1ccc(N2C(=O)CC(Sc3nc(C)cc(C)n3)C2=O)cc1 (centres undefined) | – | inconclusive: 7.08 µM [inhibitor, partial curve, poor fit]
COc1cc(C2=NOC(C(=O)NCc3cccs3)C2)cc(OC)c1OC (centres undefined) | – | inconclusive: 2.51 µM [inhibitor, full curve]
O=C1C=CC2(O[C@H](c3ccccc3)[C@@H](c3ccccc3)O2)[C@H](Sc2ccccc2O)C1 | – | inconclusive: 3.16 µM [inhibitor, partial curve, poor fit]
CCn1c(=O)c2cc(S(=O)(=O)NCc3ccccc3)ccc2n(CC)c1=O | – | inconclusive: 22.4 µM [inhibitor, single point]
Cc1ccc2nc(/C(C#N)=C/c3ccc(O)c(O)c3)[nH]c2c1 | – | inconclusive: 14.1 µM [inhibitor, partial curve, poor fit]
O=C(CCS(=O)(=O)c1ccccc1)Nc1nc2c(s1)COc1ccccc1-2 | – | inconclusive: 10 µM [inhibitor, partial curve, poor fit]
CC1(C)C2CC=C(/C=N/NC(=S)Nc3cccnc3)C1C2 (centres undefined) | inactive: -5.85% | –
Cc1ccc(Cc2c(-c3ccco3)nc3ccc(Cl)cn23)cc1 | – | inconclusive: 25.1 µM [inhibitor, single point]
O=C(CSc1nnc(CNC(=O)c2ccccc2F)n1-c1ccccc1)Nc1ccccc1F | inactive: 1.76% | –
O=C1CC(c2ccc3c(c2)OCCO3)Oc2ccc([N+](=O)[O-])cc21 (centres undefined) | – | inconclusive: 20 µM [inhibitor, single point]
Cc1cccc2[nH]cc(/C=C3/C=Nc4ccccc43)c12 | – | inconclusive: 17.8 µM [inhibitor, partial curve, poor fit]
COc1cccc(CNC(=O)c2ccc3nc(N4CCCCC4)sc3c2)c1OC | inactive: 4.98% | –
COc1cc(C2Sc3ccccc3NC3=C2C(=O)OC3)cc(OC)c1OC (centres undefined) | – | inconclusive: 11.2 µM [inhibitor, partial curve, poor fit]
COc1ccc(C(C)=O)cc1COC(=O)c1c(C)noc1C | inactive: -20.4% | –
